# Measured values: the supplement of paper PMC11417369
# ± gives the standard deviation of the averaged measurements. Some of the results follow.
# Test system: PfAP2-EXP AP2 domain (GST-tagged)
# Test: gcPBM binding intensity (ln(normalized median fluorescence intensity)); higher = stronger DNA binding
# Method in brief: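 Binding intensity is the highest Masliner-normalised natural-log median intensity over replicate spots in either probe orientation. To obtain it, GST-tagged P. falciparum DNA-binding domains made in E. coli were incubated for 1 h on an Agilent 4 × 180k array of primer-extended double-stranded 36-bp intergenic genomic probes plus negative controls. Detection used Alexa488 anti-GST antibody with scanning at 488 nm.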
row,Sequence,gcPBM binding intensity (ln)
1,CAAACAATTAAACAAACACACATATACAAGTATATA [CACACA_site8639],8.38 ± 0.36
2,ATTAAAATTTGTTAAAGTACTTAATAAAAATTTTTC [XGTACX_site1959],8.32 ± 0.38
3,AATGACTACATAATAGTGCAATATTAAAGAAAATTA,8.74 ± 0.13
4,ATTCTTAAAAAAAAATGTACACATGAACAATATGTA [XGTACX_site362],8.43 ± 0.23
5,TGTATATCATAAGATGGTACACGTGTGTGCGTATGC [XGTACX_site2255],9.06 ± 0.4
6,TTTAAGATTTTGTAATGTACATATATACATATATAT [XGTACX_site399],8.45 ± 0.33
7,TATATATTATATATGTGTACTCACTAACAAAAATTA [XGTACX_site6285],8.38 ± 0.38
8,AGGTGAATATTTTTTACACACATAAAAAAAATATAT [CACACA_site57],8.55 ± 0.45
9,TATATTTTTATAATAACACACGATATATGTTTAGGA [CACACA_site1283],8.33 ± 0.26
10,AAATTATATAAAGGAACACACATTTTATTTTATTTT [CACACA_site1500],8.2 ± 0.43
11,ATAATATTGTGGTATACACACCTTACAAAAAGGTAC [CACACA_site5582],8.74 ± 0.3
12,AATATTTTTATATATATACACACTTACATATATATA [CACACA_site3609],8.45 ± 0.54
13,TTTTTAGTTAATTAAACACACAAAAAAAAAAATAAA [CACACA_site3930],8.44 ± 0.47
14,ATTTTTTCATATTCTACACACGTGAACAAATGTGTC [CACACA_site3007],8.69 ± 0.36
15,CACACGTATATATATACACACTAAAATACCCAGACA [CACACA_site6142],8.88 ± 0.54
16,TATTTTTTTACATATTGTACATAATATAAAACTTAC [XGTACX_site8273],8.52 ± 0.38
17,TATATTTGGTTTCATTCATTTTTATAGAAATCTCAA [CACACA_negctrl_site1412],8.48 ± 0.47
18,ATATAATAGAAGTGTACACACATATTTATGGGTGTA [CACACA_site5686],8.55 ± 0.34
19,AATATTTTGTTATTTATTTAATCTAATATTATGATA [GTGCAC_negctrl_site258],8.31 ± 0.38
20,GTATATAATTATATATGTACTAAATAAATATTTTTA [XGTACX_site6062],8.29 ± 0.39
21,AAAAAATAAAAAAATAAAAAATAAAAAATAAAAAAT [TGCATGCA_negctrl_site90],8.32 ± 0.53
22,TTTTCTAAAAAAAGTTGTACATCTTATTTATATTAT [XGTACX_site295],8.31 ± 0.22

row,Sequence,gcPBM binding intensity (ln)
1,ATGTAAGACAAAAAGGGTACATAATGCGTATGTATT [XGTACX_site4666],8.88 ± 0.45
2,AAAAATTACCCATCCATACACACATATTTTTTTTAA [CACACA_site2190],8.65 ± 0.45
3,TATAAAAATAAATAAATAAATAAATAAATAAATAAA [TGCATGCA_negctrl_site310],8.34 ± 0.54
4,ATAAAATCATTCAATGGTACAGAAATACAAAATGTA [XGTACX_site6739],8.67 ± 0.37
5,TTAACATATGACATTTTTTCACCCTTCCTTTATTTT [CACACA_negctrl_site1192],8.92 ± 0.45
6,TATGTATAAAAATATTGTACATATTATATATATATA [XGTACX_site2947],9.58 ± 0.34
7,AGGTCACATTTGTCCTCACACATAGATAAATATATA [CACACA_site5460],8.41 ± 0.42
8,TTTTTTTTTTTTTTTTTTTGATTCTTATAAAAATTT [GTGCAC_negctrl_site240],7.83 ± 0.51
9,AATTAGCATTAAAAATGTACAAAAGAAAAAAATATA [XGTACX_site3816],8.52 ± 0.4
10,GTCAAAAATAATATATGTACTTATAATAGATAAATG [XGTACX_site7755],8.44 ± 0.3
11,ATAATTTGATCAATTTTTCATTTTTCATTTTTTTAA [CACACA_negctrl_site1252],8.46 ± 0.51
12,AGAAAGAATGAAAAATGTACATATATGTAATAGCTA [XGTACX_site364],9.01 ± 0.49
13,TAAAATTTAAAAAGGTGTACACTATAAATTAAAATA [XGTACX_site2081],8.74 ± 0.37
14,AATCAAAATTCATTAACACACAATTTTAATATTCTT [CACACA_site5178],8.28 ± 0.42
15,TTTTTTAAAATATGGACACACATATATATATATGTA [CACACA_site2784],8.35 ± 0.37
16,TATTTTTATAAGAGCATGCACTGTTTAAAATGGTAT,9.54 ± 0.18
17,ATGATATGGATAAATACACACAATAAAATAATGTCT [CACACA_site6786],8.71 ± 0.43
18,TTTTAACAAAACAAAACAAAATAATATAAAGATAAC [TGCATGCA_negctrl_site154],9.04 ± 0.79
19,TTTATTTATTTATGTTGTACAAGTTTATACTGGAAT [XGTACX_site6479],8.85 ± 0.4
20,TTTTGATATAAAAAAAGTACATTAATAATATTAATT [XGTACX_site4248],8.29 ± 0.37
21,TAAATAATAATAAATGTGCACAGGTATTAACAAAAA [GTGCAC_site9988],8.9 ± 0.18
22,CAGTATTCTTCTATATGTACTTATTTAAATATTCTT [XGTACX_site7555],8.78 ± 0.33
